# Results: PMC6919601, “Identification of Plasmodium dipeptidyl aminopeptidase allosteric inhibitors by high throughput screening” (PLoS ONE, 2019)
# “And” between values parts separate entries of the source, which are not always exact repeats. Equal values may be shown once. About 230 (0.21%) of roughly 110,000 compounds showed an effect of 50% or more. The list shows a part of the results.
# Molecular target: DPAP1 (Plasmodium falciparum, UniProt Q8IIJ9)
# Test: primary screen, percent inhibition; read by cleavage of a fluorogenic dipeptide substrate; higher = more effect of the substance
# Parameters: species or system P. falciparum D10 trophozoite lysates; single well
# 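Note: 30 min substrate incubation versus DMSO and 10 µM JCP410 controls.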
# Sequence of DPAP1 (Q8IIJ9 whole entry, looked up): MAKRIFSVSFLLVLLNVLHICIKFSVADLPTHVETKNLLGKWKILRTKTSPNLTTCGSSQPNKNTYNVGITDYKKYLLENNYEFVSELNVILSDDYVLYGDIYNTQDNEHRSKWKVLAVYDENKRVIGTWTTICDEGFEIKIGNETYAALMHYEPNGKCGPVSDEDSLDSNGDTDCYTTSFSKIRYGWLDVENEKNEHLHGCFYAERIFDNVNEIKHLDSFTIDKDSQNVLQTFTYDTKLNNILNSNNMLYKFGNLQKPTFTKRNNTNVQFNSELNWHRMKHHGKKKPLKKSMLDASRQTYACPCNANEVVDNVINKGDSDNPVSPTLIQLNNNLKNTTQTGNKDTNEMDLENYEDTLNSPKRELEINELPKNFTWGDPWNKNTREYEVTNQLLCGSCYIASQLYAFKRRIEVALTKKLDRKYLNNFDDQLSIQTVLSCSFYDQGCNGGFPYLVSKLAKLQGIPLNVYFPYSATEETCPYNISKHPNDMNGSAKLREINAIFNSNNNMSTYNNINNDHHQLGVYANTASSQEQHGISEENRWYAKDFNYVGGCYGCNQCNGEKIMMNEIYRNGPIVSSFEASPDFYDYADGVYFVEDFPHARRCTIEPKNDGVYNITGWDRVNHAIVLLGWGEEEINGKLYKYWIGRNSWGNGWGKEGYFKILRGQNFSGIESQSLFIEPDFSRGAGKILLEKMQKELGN
row,SMILES,% Inhibition @ 10 uM
1,NS(=O)(=O)c1ccc(NC(=O)COc2ccc(Br)cc2Cl)cc1,-0.185%
2,COc1cccc(NC(=O)c2ccc(N3C(=O)C4C5C=CC(C5)C4C3=O)cc2)c1 (centres unmarked),-2.92%
3,Cc1oc(-c2ccc(C(=O)NCCCc3ccccc3)cc2)nc1CS(=O)c1ccccc1 (centres unmarked),-5.35%
4,COc1ccc(CCNC(=O)c2ccc(Br)o2)cc1,0.163%
5,O=C(Nc1ccccc1-n1cccc1)c1cccnc1,-0.0555%
6,CCC(C)NS(=O)(=O)c1ccc2[nH]c3c(c2c1)CCCC3 (centres unmarked),2.47%
7,O=C(O)C1C2C=CC(C2)C1C(=O)Nc1ccccc1 (centres unmarked),1.64%
8,CC(C)c1ccc(C(=O)c2ccccc2C(=O)O)cc1,3.47%
9,O=C(CCS(=O)(=O)c1cccc2nonc12)NCc1ccc(Cl)cc1,-1.2%
10,O=C(O)c1ccc(CNc2nc3ccc(Cl)cc3n3cnnc23)cc1,4.33%
11,NC(=O)c1c(NC(=O)CN2C(=O)c3ccccc3S2(=O)=O)sc2c1CCCC2,11.2%
12,COc1ccc(OC)c(C2OC(c3ccc(C)cc3)=NN2C(C)=O)c1 (centres unmarked),-0.385%
13,COc1nc(CC(=O)C2CC2)nc(N(C)C(=O)NS(=O)(=O)c2ccccc2Cl)n1,-2.77%
14,CCc1ccccc1NC(=O)c1ccc(OC)cc1,5.43%
15,Nc1c(C(=O)NC2CCCC2)sc2nc(-c3ccc(F)cc3)ccc12,-4.12%
16,CCOC(=O)c1cnc2cc3c(cc2c1O)OCCO3,2.05%
17,COc1cc(C=O)ccc1OCc1nnnn1-c1ccccc1,-4.64%
18,Nc1c(NCCc2ccccc2)c2ccccc2oc1=O,3.47%
19,Cc1ccccc1NC(=O)c1[nH]cnc1C(=O)Nc1ccccn1,-3.85%
20,COc1ccc(-c2ccc(C#N)c(SCC(=O)Nc3ncc(C)s3)n2)cc1OC,-0.68%
21,CCCc1nc2c(C)cc(C)cc2c(N)c1CC,2.62%
22,Cc1cc(C(=O)NCCCc2ccccc2)n(-c2ccccc2)n1,-3.7%
23,Cc1onc(-c2c(Cl)cccc2Cl)c1C(=O)NC1CCCC1,0.177%
24,Clc1ccc(OCCCn2ccnc2)cc1,6.41%
25,Cc1n[nH]c(C)c1CCc1nc2c3ccccc3nc(NCc3cccnc3)n2n1,4.16%
26,Cc1ccc2nc(NC(=O)C3CCN(S(=O)(=O)c4cccnc4)CC3)sc2c1,-1.83%

row,SMILES,% Inhibition @ 10 uM
1,CC(C)C[C@H](NC(=O)c1ccc(C(C)C)cc1)C(=O)NCC#N,-1.5%
2,c1ccc(COc2cccc(CNCc3cccs3)c2)cc1,-5.32%
3,CC(NC(=O)CCC(=O)n1ncc2ccc(Cl)cc21)c1ccccc1 (centres unmarked),3.84%
4,CN(CCCNC(=O)CCn1c(=O)c2cccn2c2cccnc21)C1CCCCC1,2.83%
5,CCn1c2ccccc2c2cc(CNC3CCCc4ccccc43)ccc21 (centres unmarked),-3.74%
6,Cc1nc2ccc(S(=O)(=O)NCC(=O)N3CCOCC3)cc2s1,4.14%
7,Cc1nc2c(cc1C(=O)/C=C/c1cccc3ccccc13)CCCC2,1.08%
8,CCN1CCN(c2nc(-c3ccc(C(C)(C)C)cc3)nc3ccccc23)CC1,-4.93%
9,Cc1ccccc1Oc1cc(-n2ncc(C(N)=O)c2N)ncn1,1.92%
10,C/C(=C(/NC(=O)c1ccccc1)C(=O)NCc1ccccc1)c1ccccc1,-4.67%
11,CS(=O)(=O)N(CC(O)Cn1c2ccccc2c2ccccc21)c1ccc(Cl)cc1 (centres unmarked),-2.74%
12,CSc1nc2ccccc2c(=O)n1Cc1ccccc1,-2.94%
13,CN1CCN(C(=O)CCCc2cn(Cc3ccc(F)cc3)c3ccccc23)CC1,-8.65%
14,COc1ccc(NC(=O)/C(=C\c2ccccc2OC)NC(=O)c2ccccc2)cc1,-2.89%
15,CCC(C(=O)O)N1C(=O)c2ccccc2C1O (centres unmarked),-1.03%
16,COc1ccc(C(=O)c2sc3nc(C)cc(C)c3c2N)cc1,0.751%
17,CCCCNC(=O)Cn1ncc2c(C)n(Cc3ccccc3F)c(C)c2c1=O,-2.17%
18,CCC(C)c1ccc(NC(=O)Cn2nc(C(F)F)cc2C)cc1 (centres unmarked),12.1%
19,COc1ccccc1N1C(=O)C2CCC(c3ccccc3)CC2C1=O (centres unmarked),-5.83%
20,O=C(Nc1ccc(Oc2ccccc2)cc1)c1cccs1,-0.0953%
21,C=CCOc1ccc(/C=C2\SC(NC(=O)c3ccc(C)cc3)=C(C(=O)OCC)C2=O)cc1OC,4.74%
22,Cc1cccc(CCNC(=O)c2noc3c2COc2ccccc2-3)c1,75.2%
23,Cc1ccc(NS(=O)(=O)c2cc(C(=O)Nc3ccccc3C(=O)O)ccc2Br)cc1,5.63%
24,COc1cc(OC)c(/C=C2\S/C(=N/c3ccc(C(=O)O)cc3)N(C)C2=O)cc1Br,9.67%
25,COc1cccc(C2CC(=O)NC(SCC(=O)NC3CCCCC3)=C2C#N)c1OC (centres unmarked),0.343%
26,COc1ccc(-n2ncc(C(=O)NCCN3CCCC3)c2C2CCN(C(=O)OC(C)(C)C)CC2)cc1,-4.41%

row,SMILES,% Inhibition @ 10 uM
1,O=c1c2ccccc2c2ccccc2c(=O)n1-c1ccc2c(c1)OCO2,-5.4%
2,COc1cc(C(=O)N2CCN(C(=O)c3cc(-c4ccccc4)[nH]n3)CC2)cc(OC)c1OC,1.51%
3,COc1ccc(-c2nnc(SCC(=O)O)n2-c2cccc(C(F)(F)F)c2)cc1OC,-5.76%
4,NS(=O)(=O)c1ccc(NC(=O)COc2ccc(Cl)cc2)cc1,2.17%
5,COc1ccc(CC(=O)N2CCN(Cc3noc(CCC(=O)N(C)Cc4ccccc4)n3)CC2)cc1,-2.18%
6,COCc1cc(C)nc(SCC(=O)NCc2ccc(Cl)cc2)c1C#N,-5.53%
7,Cc1[nH]c(O)nc1CN1CCCCC1,2.39%
8,CCOC(=O)N1CCC(NCC2CCCO2)CC1 (centres unmarked),1.88%
9,O=C(/C=C/c1ccccc1Cl)c1cccnc1,-5.32%
10,O=C(CCC(=O)n1ncc2ccc(Cl)cc21)NCC1CCCO1 (centres unmarked),-4.94%
11,COc1cccc2c1OC(c1cccc(OC)c1OC)N1N=C(c3ccccc3O)CC21 (centres unmarked),0.0719%
12,CCCCC(NC(=O)[C@H](CC(C)C)NC(=O)OCc1ccccc1)C(=O)c1nnc(-c2cccnc2)o1 (some centres unmarked),-3.48%
13,CC(=O)Nc1cccc(NC(=O)C2c3ccccc3Oc3ccccc32)c1,-5.14%
14,N#CC1=C(N)OC2=C(C(=O)CCC2)C12C(=O)Nc1ccccc12 (centres unmarked),-3.78%
15,COc1ccccc1CNC(=O)c1ccc(N(Cc2ccccc2Cl)S(C)(=O)=O)cc1,18.7%
16,COc1ccc(-n2c(C)cc(/C=C(/C#N)C(=O)Nc3ccc(Cl)cc3)c2C)cc1,-6.22%
17,Nc1ccc(-c2nc3cc(N)ccc3[nH]2)cc1,-1.86% and 1.13%
18,O=C1C=C(N(CCO)CCO)C2(CCCCC2)O1,-2.47%
19,CC(=O)N1CCN(c2cc(N3CCCCC3)c(F)cc2[N+](=O)[O-])CC1,2.05%
20,O=C(Nc1ccc(S(=O)(=O)Nc2nccs2)cc1)c1ccco1,0.851%
21,C/C=C(\C)CC(NC(=O)OCc1ccccc1)C(=O)NCC#N (centres unmarked),-4.93%
22,CC(C)CCn1nnc2sc3c(c2c1=O)CCC(C)C3 (centres unmarked),-6.78%
23,CCOC(=O)c1nnn(-c2nonc2N)c1CN1CCN(CCO)CC1,-1.6%
24,O=C(O)CCc1ccc(-c2ccc(O)cc2)cc1,2.13%
25,Cc1ccc(S(=O)(=O)N(CC(=O)N(C)C)c2cc(Cl)ccc2C)cc1,1.57%
26,O=C(c1ccccc1)N1CC(=O)N(OCc2ccccc2)C1c1cccs1 (centres unmarked),-0.597%

row,SMILES,% Inhibition @ 10 uM
1,Cc1cccc(N2CCN(C(=O)NC3CCCCC3)CC2)c1C,-1.88%
2,COc1ccc(-c2c3c(nc4sc(C(C)=O)c(N)c24)CCCC3)cc1,5.18%
3,O=S(=O)(NC1CCCCCC1)c1ccc(Cl)cc1,-2.6%
4,COc1ccc(NC(=O)c2ccc(C#N)cc2F)cc1,1.89%
5,O=C(NCCCN1CCCCC1)C1CCN(S(=O)(=O)N2CCC3(CC2)OCCO3)CC1,-4.83%
6,O=C(Cn1cc(SCc2c(F)cccc2Cl)c2ccccc21)N1CCOCC1,5.27%
7,COc1cc(C(=O)Nc2cc(OC)c(OC)c(OC)c2)ccc1OC(F)F,2.4%
8,CCOC(=O)Nc1cc(=O)c2cc(C)ccc2o1,-6.2%
9,CC(=O)Nc1ccc(NS(=O)(=O)c2ccc(F)cc2)cc1,2.7%
10,CCOc1ccc(-c2csc(-c3ccccn3)n2)cc1,2.62%
11,O=C(COc1cc(Cl)ccc1Cl)Nc1nc[nH]n1,1.58%
12,COc1ccccc1C(=O)NCc1cccs1,-1.61%
13,CNC(=O)c1oc2ccc3c(c2c1C)C(=O)CC1(CCCCC1)O3,2.27%
14,Cc1ccc(Oc2coc3cc(OCC(=O)Nc4ccccc4)ccc3c2=O)cc1,3.04%
15,C/C(=N\c1cccc2ccccc12)C1=C(O)CC(c2ccccc2)CC1=O (centres unmarked),0.746%
16,O=c1c(-c2ccc3c(c2)OCCO3)coc2c(CN3CCCCC3)c(O)ccc12,-1.82%
17,Cc1cc[n+](CC(=O)N2CCCCC2)c(C)c1,-3.19%
18,COc1ccccc1CNC(=O)CCCCn1c(=O)[nH]c2ccsc2c1=O,1.23%
19,O=C(NCc1ccc2c(c1)OCO2)c1cc(-c2ccc(Cl)cc2)n[nH]1,5.45%
20,CCOc1ccc(-c2cn(-c3ccccc3F)c(S)n2)cc1,56.2%
21,COC(=O)c1ccc(NC(=O)c2cc(OC)c(OC)c(OC)c2)cc1,-6.82%
22,CC1CCN(S(=O)(=O)N2CCC(C(=O)NCCN3CCCCCC3)CC2)CC1,0.387%
23,O=C(CC(c1cccs1)N1Cc2ccccc2C1=O)N1CCN(C(=O)c2ccco2)CC1 (centres unmarked),-0.943%
